Source: patent publication US7244430 (CRUCELL HOLLAND B V, dated 2007)

Biological target: T1, recombinantly expressed purified soluble WNV E protein (strain 382-99) (West Nile virus strain 382-99, UniProt Q9Q6P4 291-696)
T1 construct: also called recombinant WNV-E protein; truncated E protein; not shown: Myc tag and His tag
T1 sequence: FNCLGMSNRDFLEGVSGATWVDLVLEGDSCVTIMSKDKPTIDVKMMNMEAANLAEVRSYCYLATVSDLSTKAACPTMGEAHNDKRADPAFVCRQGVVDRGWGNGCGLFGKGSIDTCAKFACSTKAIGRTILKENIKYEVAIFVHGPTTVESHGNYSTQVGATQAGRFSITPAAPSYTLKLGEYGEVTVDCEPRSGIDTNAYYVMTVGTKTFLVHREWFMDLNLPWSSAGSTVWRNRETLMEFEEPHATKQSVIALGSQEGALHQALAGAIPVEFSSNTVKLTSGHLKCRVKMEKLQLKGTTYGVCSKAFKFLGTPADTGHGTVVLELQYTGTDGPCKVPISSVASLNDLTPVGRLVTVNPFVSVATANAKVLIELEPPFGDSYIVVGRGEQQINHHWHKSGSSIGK
Experiment: phage ELISA, coated recombinant soluble WNV E protein

B1: SC04-274 (scFv)
scFv: QVQLVQSGAEVKKPGESLKISCKGSGYSFTSYWIGWVRQMPGKGLEWMGIIYPGDSDTRYSPSFQGQVTISADRSISTAYLQWSSLKASDTAMYYCARLRGPYYDFWNGYRETHDAFNVWGQGTTVTVSSGTGGSGGTGSGTGGS[skipping about 100 residues]FGGGTKVEIKR
OD 492 nm: 0.496 OD 492 nm
